Results taken from the supplement of paper PMC3334620.
In all, about 33,000 sequences were measured (“E-score (-0.5 to 0.5)”: median about -0.043, highest 2% from about 0.37 on). This is one part of the list.

Target: T1, Upc2 (UniProt Q12151)
T1 sequence: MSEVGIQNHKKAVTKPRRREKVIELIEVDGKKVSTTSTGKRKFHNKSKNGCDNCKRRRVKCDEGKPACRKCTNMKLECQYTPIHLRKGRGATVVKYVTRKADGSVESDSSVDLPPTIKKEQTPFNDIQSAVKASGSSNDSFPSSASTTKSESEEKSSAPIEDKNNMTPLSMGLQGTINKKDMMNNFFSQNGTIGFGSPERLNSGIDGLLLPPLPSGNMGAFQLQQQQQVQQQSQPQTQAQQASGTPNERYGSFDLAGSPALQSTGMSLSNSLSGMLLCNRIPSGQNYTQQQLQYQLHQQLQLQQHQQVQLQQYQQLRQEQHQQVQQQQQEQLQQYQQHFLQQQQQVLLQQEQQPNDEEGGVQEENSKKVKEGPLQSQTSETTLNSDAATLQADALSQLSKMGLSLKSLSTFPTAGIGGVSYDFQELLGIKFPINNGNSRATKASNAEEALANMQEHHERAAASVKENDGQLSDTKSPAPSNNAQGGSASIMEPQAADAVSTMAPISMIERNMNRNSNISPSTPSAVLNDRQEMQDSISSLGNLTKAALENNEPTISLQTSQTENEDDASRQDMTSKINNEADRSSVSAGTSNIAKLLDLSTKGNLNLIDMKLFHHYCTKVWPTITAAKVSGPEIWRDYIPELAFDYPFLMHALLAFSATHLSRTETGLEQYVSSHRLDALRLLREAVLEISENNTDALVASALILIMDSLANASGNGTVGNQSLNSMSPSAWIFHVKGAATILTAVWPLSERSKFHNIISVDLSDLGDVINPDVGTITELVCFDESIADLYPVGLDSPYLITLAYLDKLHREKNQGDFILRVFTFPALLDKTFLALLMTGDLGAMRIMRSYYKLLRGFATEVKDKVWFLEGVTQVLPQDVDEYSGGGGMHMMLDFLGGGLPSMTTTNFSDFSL
Test: PBM E-score (8-mer binding enrichment) (E-score (-0.5 to 0.5)); higher = stronger / more preferred TF binding; most listed sequences are background and not binding sites
Conditions: protein concentration: 200 nM; construct: GST-full length
How it was run: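 Yeast transcription factors carrying a GST tag, as full-length proteins or DNA-binding domains, were produced by PURExpress in vitro transcription/translation. About 100-200 nM protein was applied to universal all-10-mer Agilent arrays, double-stranded by primer extension on fresh or once-stripped slides. Bound protein was detected with fluorescent anti-GST, and scans were normalised with masliner. The Universal PBM Analysis Suite gave each ungapped eight-base word, pooled with its reverse complement, an E-score, a modified Wilcoxon-Mann-Whitney statistic.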

In order of falling “PBM E-score” value:
1. AAACGACC  0.458
2. AACGAGCA  0.444
3. AAGAACGA  0.408
4. CAGAACGA  0.399
5. ACGAAAAG  0.355
6. ATCGGTTA  0.333
7. GTTTATAA  0.303
8. GCTACGTA  0.301
9. ACGTGAAC  0.289
10. AAGGATCG  0.271
11. ATATCCGA  0.267
12. CGACCTAA  0.257
13. CGGTGAAA  0.247
14. GTACATAC  0.22
15. CGGAGTAC  0.199
16. TACACGTA  0.191
17. GCAATAGA  0.184
18. TGTCGCAA  0.174
19. CTTTTCCC  0.172
20. AGTTCTCG  0.134
21. TCGCCAAA  0.13
22. AACGTCTC  0.117
23. ATCTTAAA  0.113
24. CGTGGAAC  0.112
25. TCGGTACA  0.108
26. GTCCGATA  0.108
27. ACGGAGTC  0.105
28. AACGCCCC  0.0859
29. AGATCGCC  0.0712
30. CGTCATCA  0.0642
31. ATGCTATA  0.0631
32. GGATGGGA  0.063
33. CGGCTGCA  0.0607
34. ATTGCATC  0.0605
35. ACGGCTCT  0.0596
36. TCGAGACA  0.0571
37. GCTTGGTA  0.057
38. ATTTGCTG  0.0559
39. AGTATCCG  0.0553
40. AACACGTT  0.0498
41. AAAGTAAA  0.0446
42. ACTTGCAT  0.0418
43. ATCTCGAA  0.038
44. GCTTTGAA  0.0379
45. AAATTTTC  0.0349
46. AAAACAGC  0.0339
47. CTGTGAGC  0.0332
48. CCGTAGTC  0.0316
49. TCTGCAAA  0.0312
50. AAGTCAAC  0.03
51. AAACCTCA  0.0265
52. GAAAAAGC  0.0257
53. CGTCTGAC  0.0257
54. ATCACAAC  0.0203
55. ATTAATAA  0.0142
56. CACGGACC  0.0136
57. CCCACAAG  0.0134
58. CCCCGGTA  0.0114
59. ATGAGTAA  0.00725
60. TAGTACAA  0.00376
61. AATATCAC  0.00067
62. CGAGTCTC  -0.00061
63. CATGACTA  -0.00188
64. CATGGTAC  -0.00424
65. ACCTATCC  -0.00458
66. CGCGGAGA  -0.0104
67. CCTGTTCA  -0.0135
68. AATTAATG  -0.0149
69. CAACGCAC  -0.0166
70. GGGGAAAA  -0.0167
71. GTTCTACA  -0.0186
72. AAGAAATA  -0.0215
73. CCCTACAC  -0.0225
74. ATAATAGC  -0.0244
75. CTCCTTTA  -0.0264
76. TGTAACAA  -0.0291
77. AACCCTAG  -0.0316
78. ACCCGTGC  -0.0333
79. GAGGACGC  -0.0341
80. CTTTATTC  -0.0399
81. CTACGCTA  -0.04
82. ACACAGGA  -0.0406
83. ATAACTAC  -0.0415
84. AATGAGGT  -0.0435
85. CCTCATTA  -0.0435
86. ATCTCCGG  -0.0466
87. GAGCTGGC  -0.0546
88. GCTCCAAA  -0.0579
89. AGGTCCTA  -0.0622
90. ATTTAAGG  -0.064
91. ATCTTAAG  -0.0657
92. ATCCTATG  -0.066
93. ATTGCAGC  -0.0672
94. ACTTTCAT  -0.0674
95. ATTGTGGC  -0.0686
96. GGGGCACC  -0.0703
97. CTAGTCTC  -0.0707
98. CTTAACTA  -0.0715
99. AAAAGCCA  -0.0725
100. CTGCTACA  -0.0733
101. CAAACTTC  -0.0798
102. CCCGCAGG  -0.0802
103. CTGCGATC  -0.0814
104. AATAGTCA  -0.0817
105. TCGACTAA  -0.082
106. AATAGGGC  -0.0827
107. TGAGGGAA  -0.084
108. AGCTGAGC  -0.0883
109. ATCAGAAA  -0.0919
110. CATAGTCA  -0.0964
111. ATGTAGTC  -0.097
112. CAATAAGA  -0.0979
113. AAAGGCAT  -0.1
114. ATCCTAGC  -0.102
115. ATTTCTGG  -0.104
116. GCATGAGC  -0.107
117. AAGAAGAT  -0.109
118. AGAAACCA  -0.109
119. AGCGCCGA  -0.111
120. GAGCCCCC  -0.111
121. CACCCCTC  -0.113
122. CGCACTTA  -0.118
123. GAATGAGC  -0.126
124. GGAGGATA  -0.132
125. GCCACCGC  -0.134
126. AGAAGAGG  -0.137
127. GAAGAAAA  -0.137
128. AAATGACA  -0.14
129. CGTCCAGC  -0.142
130. CAAGATTG  -0.144
131. AGCAGGCC  -0.148
132. CAAGGAGC  -0.149
133. CCTTGCTA  -0.149
134. CACTTCTA  -0.152
135. CAACTGAC  -0.153
136. AGAGCCTA  -0.154
137. ATTCCTGA  -0.155
138. AACATGGC  -0.157
139. ATACTTCA  -0.16
140. ACTTGTGG  -0.162
141. AGAAAGTG  -0.163
142. CATAGGAC  -0.166
143. GGTAACCA  -0.169
144. CCCGTGAG  -0.17
145. CTAGTGAG  -0.18
146. CACTACAG  -0.181
147. CATCGGGG  -0.184
148. CAGCGACC  -0.185
149. CCGGGGCC  -0.19
150. ATTGTGGA  -0.191
151. AATCCTTG  -0.193
152. CACTTAGC  -0.194
153. AATCATGG  -0.197
154. ACGTCAGG  -0.204
155. GCTCCACA  -0.204
156. CAAGCGGA  -0.228
157. ATCCCCGA  -0.23
158. CCCTGGGC  -0.236
159. AGGTACTA  -0.24
160. CCCTGGCC  -0.242
161. CCGTGTCA  -0.245
162. GGAGGCGA  -0.253
163. CAGGTGGA  -0.255
164. CTGATCAC  -0.26
165. ATTCTCAG  -0.262
166. CACCCCCC  -0.264
167. ATACAATG  -0.272
168. AATGGGAA  -0.28
169. AAAGGCTG  -0.293
170. TGATCCCA  -0.295
171. CCCCCCCC  -0.353
172. CCTGCAGG  -0.443
